Sequences and labels used below:
B1: LINE1-mini (parent)
chain: GGCAGAGCUCAACACAGCGUGGCAAAGUGGCUGUGGCUAGACUGCC

Read counts are not given, so values of variants with three or more changes are uncertain.

The variants in the data set derive from B1. The data set can be described thus: self-cleavage, relative activity (ratio to wild type); higher = more cleavage; in vitro, sequencing; the parent is a self-cleaving ribozyme.
Turning to U34A A39G C46U, the self-cleavage is 0.04.

For G36A C37G A39C G44A, the self-cleavage is 0.06.

As for C37U C42U U43A, the self-cleavage came to 0.06.

On to C37A U38G A41U, for which the self-cleavage came out at 0.01.

For the variant G33U G40U C42A, the self-cleavage stood at 0.05.

Turning to G33A C42G U43A G44C C45U, the self-cleavage amounted to 0.02.

For the variant G40A U43G C46U, the self-cleavage came out at 0.01.

With G36A U38A G40U, the self-cleavage amounted to 0.16.

Regarding G36A A41G C46U, the self-cleavage worked out at 0.3.

Regarding G35A C37G U38A, the self-cleavage worked out at 0.01.

As for G36C C37U A41C, the self-cleavage was found to be 0.03.

For the variant U34G G36A C45U, the self-cleavage was determined as 0.06.

U34G A39G G40U: the self-cleavage was found to be 0.17.

As for G36A C37U C42U, the self-cleavage was determined as 0.12.

For G33A U34C A41C, the self-cleavage was 0.05.

In the case of U34C A41G C46U, the self-cleavage amounted to 0.07.

For G36U A39U A41U, the self-cleavage stood at 0.26.

In the case of G35U C42G C46U, the self-cleavage was found to be 0.04.

Regarding G36C C37U G40C G44C, the self-cleavage was 0.07.

On to A39U U43A C46A, for which the self-cleavage came out at 0.08.

As for G36A A39U U43C, the self-cleavage worked out at 0.32.

On to G35A A41G U43A C45A, for which the self-cleavage is 0.

As for G36C C37A A39C, the self-cleavage was 0.06.

As to G35U G36A G44U, the self-cleavage was 0.17.

Take U38G C42U C45U: the self-cleavage was 0.01.

Take G35U A41U C42G: the self-cleavage was 0.07.

Take U34A G36C G40C C42A: the self-cleavage was 0.03.

G36U C37A C45G C46U: the self-cleavage is 0.03.

In the case of G33U C37G U43A, the self-cleavage was 0.03.

Regarding G40U A41U C45U, the self-cleavage amounted to 0.34.

Consider G36C U38G G44A, for which the self-cleavage stood at 0.22.

For the variant C37A A41C G44C, the self-cleavage turned out to be 0.14.

Consider G33U U38A G40U C42A, for which the self-cleavage was determined as 0.03.

Consider G33A G36C C42U, for which the self-cleavage turned out to be 0.02.

G33U U38C A41G: the self-cleavage came to 0.02.

As to G33C G36A C37G C45G, the self-cleavage was 0.01.

As for G35U C37U C42U, the self-cleavage turned out to be 0.31.

For the variant G33C G40U U43G C46G, the self-cleavage stood at 0.

Consider G35C G36U U43C, for which the self-cleavage stood at 0.04.

In the case of G33A U38G C42U C46U, the self-cleavage is 0.08.

As for C37G A39U A41C U43A, the self-cleavage came to 0.04.

As to C37A A41U G44A, the self-cleavage stood at 0.03.

Consider U34G A39U G40C, for which the self-cleavage turned out to be 0.06.

Take U32C G36U A41C: the self-cleavage came to 0.15.

For G36C U38A A41U, the self-cleavage stood at 0.02.

Take U34G G35U G40U: the self-cleavage turned out to be 0.03.

For the variant C37A A41G U43G, the self-cleavage is 0.07.

In the case of G36U C37U C42A, the self-cleavage was found to be 0.01.

As to G33C C37G U38G, the self-cleavage amounted to 0.06.

For the variant G35U A39G C42U, the self-cleavage amounted to 0.13.

For the variant G36A A39U A41C C42A, the self-cleavage was 0.07.

Take U34C C37A G40A: the self-cleavage is 0.02.

Take G33U C37G A39U C42U: the self-cleavage came to 0.05.

On to U32A G36C C45A, for which the self-cleavage was determined as 0.03.

For G40C G44A C45A, the self-cleavage was 0.01.

Regarding G33C U34A G35U C46A, the self-cleavage turned out to be 0.07.

Turning to U32C G40C C46A, the self-cleavage came to 0.01.

As for G36A U38A A41C, the self-cleavage came to 0.01.

Consider G33C A41U C45A, for which the self-cleavage was found to be 0.04.

Take U32G U38A A41G: the self-cleavage stood at 0.11.

Consider U38G G40C C42A, for which the self-cleavage was 0.04.

With C37A C42G G44A, the self-cleavage is 0.03.

For G35C C42U C45U, the self-cleavage came to 0.07.

G33U C37A C42A C46U: the self-cleavage stood at 0.36.

Regarding G40A A41U G44U, the self-cleavage stood at 0.03.

On to U34A G40U C46G, for which the self-cleavage was 0.01.

For U38A A39U G40A U43A, the self-cleavage was 0.09.

G33U G36A U38G C42G: the self-cleavage stood at 0.03.

Regarding U34G C45U C46A, the self-cleavage is 0.06.

Take G33C C42U G44A: the self-cleavage is 0.05.

Consider G35C G36U A39G U43C G44U, for which the self-cleavage came to 0.08.

Consider G33A G35A C37G, for which the self-cleavage is 0.11.

On to U32A U34C G35U, for which the self-cleavage came out at 0.06.

As to U32G G35C G36A C37U C46G, the self-cleavage was determined as 0.12.

With G35C G44A C46A, the self-cleavage was found to be 0.02.

Regarding G36C C45U C46G, the self-cleavage is 0.03.

Consider C37G A39U A41G, for which the self-cleavage was determined as 0.03.

For G44C C45A C46A, the self-cleavage amounted to 0.03.

Consider U32G C37U A41U, for which the self-cleavage worked out at 0.05.

Take A41C G44A C45U: the self-cleavage was determined as 0.07.

Turning to U32G A39U C45G, the self-cleavage is 0.04.

As for U38A A41U G44A, the self-cleavage worked out at 0.08.

On to A39U C42A C46U, for which the self-cleavage was 0.05.

Regarding U32C U34C G44U, the self-cleavage was 0.05.

As for G36U C37U C46G, the self-cleavage worked out at 0.02.

In the case of U38C A41G C46A, the self-cleavage worked out at 0.11.

For the variant G33A A41U C42A, the self-cleavage was found to be 0.04.

With U34A G35C U38G, the self-cleavage was determined as 0.

U34C C42A G44C: the self-cleavage worked out at 0.11.

As to G33A G36A C37G G44C, the self-cleavage was found to be 0.02.

On to U34A G36C U38A C46U, for which the self-cleavage turned out to be 0.

As to G35C G44C C46A, the self-cleavage stood at 0.08.

As to G36U C45U C46G, the self-cleavage was 0.1.

U32G U38G G44A: the self-cleavage is 0.03.

For C37G C42U U43G, the self-cleavage was determined as 0.03.

With C37U C45A C46U, the self-cleavage came to 0.13.

For the variant G35C G40A C45A, the self-cleavage was found to be 0.07.

G33U G40A C42U C46A: the self-cleavage was determined as 0.06.

On to G33C U43A G44U, for which the self-cleavage stood at 0.07.

With C42A G44C C46A, the self-cleavage was found to be 0.02.

Turning to U32G G36U C42A, the self-cleavage came out at 0.01.

As for U34G U38A G40U, the self-cleavage came out at 0.04.

Consider G35U C37A U43C, for which the self-cleavage stood at 0.08.

On to U34C G36C C46A, for which the self-cleavage is 0.02.

Consider G36C G40C C45G C46A, for which the self-cleavage is 0.08.

Take G35C C37G G40U A41U C42G: the self-cleavage was 0.

For U34A G36A U38G, the self-cleavage is 0.01.

Turning to U34G G35U C46U, the self-cleavage amounted to 0.02.

In the case of G35U U38G U43A, the self-cleavage worked out at 0.03.

G35U G40C A41G: the self-cleavage is 0.12.

Consider U32C C37A A41C, for which the self-cleavage came out at 0.08.

Consider G35C U38G A39U, for which the self-cleavage amounted to 0.02.

Turning to G36C A39U C42A, the self-cleavage was found to be 0.01.

As for G33C G36A G40A, the self-cleavage was 0.05.

As for U34G C37A C46A, the self-cleavage came to 0.02.

Regarding G33A G36U C37A, the self-cleavage came to 0.02.

For the variant U34G C42G G44U, the self-cleavage turned out to be 0.04.

As for G40C C42U G44A, the self-cleavage stood at 0.02.

In the case of C37U A39G G44A C46U, the self-cleavage was 0.01.

Take G33C G35A A41U C45A: the self-cleavage was found to be 0.

Take G35U G36C G44C: the self-cleavage worked out at 0.02.

Regarding G35C U38A G40U, the self-cleavage was found to be 0.1.

Consider A39U G44U C46U, for which the self-cleavage came out at 0.05.

For the variant C37A C42A C45A C46U, the self-cleavage was 0.02.

Take C37U U38C C42A: the self-cleavage was 0.08.

U32A G40U U43C: the self-cleavage stood at 0.02.

Take U32G U34C A41C G44A: the self-cleavage was found to be 0.1.

Take U34G C37A A41C: the self-cleavage was found to be 0.02.

For G40C A41C G44U, the self-cleavage was 0.59.

As for C37A U38A C45G, the self-cleavage worked out at 0.01.

For the variant G36U A39U U43C, the self-cleavage came out at 0.03.

As to U38A A39U C46U, the self-cleavage amounted to 0.72.

Take G35U C37G G44A: the self-cleavage turned out to be 0.05.

With U34A G36U G44C, the self-cleavage is 0.04.
